Results published in PMC4336329 (PLoS ONE, 2015).
Among all 310,000 compounds or so, about 14,000 (4.5%) showed an effect of 50% or more. Effects have a minus sign here. This is one part of the list.

What follows are molecules tested against human ether-à-go-go-related gene (hERG) potassium channel (human, UniProt Q12809) (assay: primary screen, population patch clamp on CHO cells stably expressing hERG).
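Further: peak tail current of the secondary pulse compared with the same well before compound.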

Sequence of human ether-à-go-go-related gene (hERG) potassium channel (Q12809 whole entry, looked up): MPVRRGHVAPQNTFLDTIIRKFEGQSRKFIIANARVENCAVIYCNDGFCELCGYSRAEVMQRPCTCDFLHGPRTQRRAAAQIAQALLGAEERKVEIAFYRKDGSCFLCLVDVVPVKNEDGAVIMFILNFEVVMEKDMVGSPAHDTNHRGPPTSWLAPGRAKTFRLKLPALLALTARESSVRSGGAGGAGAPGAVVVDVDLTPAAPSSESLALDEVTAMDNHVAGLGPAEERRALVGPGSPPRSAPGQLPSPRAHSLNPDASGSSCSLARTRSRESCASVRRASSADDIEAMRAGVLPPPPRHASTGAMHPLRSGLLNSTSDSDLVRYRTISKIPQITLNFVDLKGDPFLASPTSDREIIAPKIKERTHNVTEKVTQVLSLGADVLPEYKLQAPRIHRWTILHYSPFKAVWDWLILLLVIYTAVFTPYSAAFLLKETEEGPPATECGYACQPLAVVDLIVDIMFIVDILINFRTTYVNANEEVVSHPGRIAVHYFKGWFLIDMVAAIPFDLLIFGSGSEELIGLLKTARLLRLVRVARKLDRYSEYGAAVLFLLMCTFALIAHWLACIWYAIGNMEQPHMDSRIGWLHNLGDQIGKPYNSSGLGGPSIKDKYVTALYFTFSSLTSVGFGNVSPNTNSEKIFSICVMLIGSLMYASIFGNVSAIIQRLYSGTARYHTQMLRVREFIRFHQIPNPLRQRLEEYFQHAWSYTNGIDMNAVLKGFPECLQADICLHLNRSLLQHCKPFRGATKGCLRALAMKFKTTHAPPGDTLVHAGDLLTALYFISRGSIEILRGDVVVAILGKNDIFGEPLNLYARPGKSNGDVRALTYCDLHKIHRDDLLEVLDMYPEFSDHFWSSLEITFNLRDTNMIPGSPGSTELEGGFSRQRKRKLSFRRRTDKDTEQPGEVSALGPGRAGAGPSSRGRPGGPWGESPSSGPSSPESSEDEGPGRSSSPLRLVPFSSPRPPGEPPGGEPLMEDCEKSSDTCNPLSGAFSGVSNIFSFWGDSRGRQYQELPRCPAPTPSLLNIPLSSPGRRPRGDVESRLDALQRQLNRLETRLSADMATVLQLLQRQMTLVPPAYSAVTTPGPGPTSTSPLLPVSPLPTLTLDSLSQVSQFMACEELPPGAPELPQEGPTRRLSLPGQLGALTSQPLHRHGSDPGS

SMILES | hERG current change (%, negative = inhibition) at 10uM [%]
c1ccc(-c2nnc(OCCN3CCOCC3)c3ccccc23)cc1 | 7.56
NC(=O)CC1C(=O)N(c2ccc(Cl)cc2)C(=S)N1NC(=O)c1cccc(F)c1 (stereo not shown) | 15.3
CN(Cc1ccc(F)cc1)C(=O)c1cccc(S(=O)(=O)N2CCN(c3ccccc3)CC2)c1 | -19.9
COC(=O)C(C)N1C(=O)S/C(=C/c2cc(C)n(-c3ccccn3)c2C)C1=O (stereo not shown) | -11.5
CCCCC(C(=O)NC1CCCC1)N(C(=O)c1snc(C(N)=O)c1N)c1ccc(OCC)cc1 (stereo not shown) | 18.3
Cc1ccc2c(c1)CCCN2C(=O)c1c(C)noc1C | -12.8
Cc1sc2nc3ccc(N4CCCCC4)nn3c(=O)c2c1C | -9.12
O=C(CCCN1C(=O)/C(=C/c2ccccc2Cl)SC1=S)NCCCN1CCOCC1 | -36.6
C=CCn1c(=O)c(CCC(=O)Nc2ccc(N3CCOCC3)cc2)nc2cc(C(F)(F)F)ccc21 | -0.43
CC12CC(c3ccccc3O1)N(C(=O)c1ccco1)C(=S)N2c1ccccc1 (stereo not shown) | 6.08
Cc1cc([N+](=O)[O-])nn1Cc1ccc(C(=O)N/N=C/c2ccc(N(C)C)cc2)cc1 | 9.61
Cc1sc2ncn(CC(=O)NCCCC(=O)N3CCN(Cc4ccc5c(c4)OCO5)CC3)c(=O)c2c1C | -6.94
CCC(=O)NC(C)C(c1cccs1)N1CCN(Cc2ccccc2)CC1 (stereo not shown) | -11.6
Cc1c(NC(=O)c2ccc(Br)o2)cccc1C(=O)O | 11.5
COCCCNc1nc2nonc2nc1N1C[C@H]2CC[C@H]1C2 | 5.29
COc1ccc(S(=O)(=O)NCCc2ccccc2)cc1OC | 4.6
CC(C)OC(=O)c1cc(-c2ccc(C=O)o2)ccc1Cl | 16.3
CC(OC(=O)Cc1ccsc1)C(=O)Nc1ccc(C(N)=O)cc1 (stereo not shown) | 0.208
Cc1cc(C(c2ccc(O)cc2)c2cc(C)c(O)cc2C)c(C)cc1O | 0.783
COc1cc2sc3ccc(-c4ccc5[nH]ccc5c4)cc3c(=O)c2cc1OC | 11.4
CN1CCN(Cc2ccc(-c3ccc(Cl)cc3)o2)CC1 | -31.7
COc1ccccc1C(=O)NNC1=C(C(=O)C(F)(F)F)CCC1 | -2.03

SMILES | hERG current change (%, negative = inhibition) at 10uM [%]
Cc1ccc(S(C)=O)cc1-n1c(=O)n(Cc2ccccc2)c(=O)c2[nH]cnc21 (stereo not shown) | 19
C=CC[C@H]1CC(C)=C[C@H](CC=C)[NH2+]1.[Cl-] | 34.7
COc1ccc(C2/C=C\CN(Cc3ccc(N(C)C)cc3)CC(=O)N2Cc2ccc(F)cc2)cc1 (stereo not shown) | -15
Cc1cc(C)nc(SCC(=O)N(C)CC(=O)Nc2c(Cl)cccc2Cl)n1 | 5.43
O=C(c1cc(-c2ccc(O)cc2)on1)N1CCN(c2ccccc2)CC1 | -6.55
CCCC(C(=O)NCC1CCCO1)N(Cc1ccco1)C(=O)CNS(=O)(=O)c1ccccc1 (stereo not shown) | 11.8
COCCNc1nc(-c2ccccc2)nc2ccccc12.Cl | -32.5
CC(=O)Nc1ccc(OC(=O)c2c(-c3ccccc3Cl)noc2C)cc1 | -15.9
CC1CCCCN1CCNC(=O)c1cc2c(-c3ccccc3F)nn(C)c2s1 (stereo not shown) | -56.1
Cc1ccccc1NC(=S)NC1CCCC1 | 18.2
CCOC(=O)C1CCN(S(=O)(=O)c2cc(Br)cc3c2N(C(=O)C2CC2)CC3)CC1 | 13.6
COCCCN1CC(=O)N2C(c3ccc(OC)c(OC)c3)c3[nH]c4ccccc4c3C[C@H]2C1=O (stereo partly shown) | 9.04
Cc1ccc(C(=O)N2N=C3c4ccccc4S(=O)(=O)N3[C@H]2N(C)C)cc1 | -13.2
CCCC(CCC)=NNC(=O)c1ccccc1F | 2.22
CNS(=O)(=O)c1ccc(C(=O)NCC(=O)NCC2COc3ccccc3O2)cc1 (stereo not shown) | 12
COc1ccc(CN=C(Nc2ccccc2)SC2CC(=O)NC2=O)cc1 (stereo not shown) | 2.39
O=C(CCN1C(=O)c2ccccc2S1(=O)=O)Nc1cccc2ccccc12 | -5.33
N#CCCn1cc(C(=O)Nc2ccccc2Cl)c(-c2ccc(F)cc2)n1 | 14
N#CC1=C(N)OC2=C(C(=O)CC(c3ccco3)C2)C1c1ccc(OCc2c(F)cccc2Cl)cc1 (stereo not shown) | -1.84
COc1ccc(Cl)cc1NC(=O)C1COc2ccccc2O1 (stereo not shown) | 2.73
COc1cc(C)c(CNc2ccc(OC)c(OC)c2)cc1C | 7.7
